# ± gives the standard deviation of the averaged measurements. Some of the results follow.
# Test system: PfAP2-I AP2 domain 3 (GST-tagged)
# Assay: gcPBM binding intensity (ln(normalized median fluorescence intensity)); higher = stronger DNA binding
# Outline: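 After 1 h on an Agilent 4 × 180k array of primer-extended double-stranded 36-bp intergenic genomic probes and negative controls, bound GST-tagged P. falciparum DNA-binding domains were detected with Alexa488 anti-GST antibody and scanned at 488 nm. The domains had been expressed in E. coli, and binding took place in 1× PBS with 1% milk, 0.2 mg/ml BSA, 0.5% salmon testes DNA and 0.03% Triton X-100. Binding intensity is the highest Masliner-normalised natural-log median intensity across replicate spots of either probe orientation.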
row,Sequence,gcPBM binding intensity (ln)
1,TATTTATTTTCATATAGTACTTTTTTCAGGCATATA [XGTACX_site6691],7.79 ± 0.53
2,TTCAAAAGCCGGATAACATGCAGTAGTAGAACAAAC [TGCATGCA_site413],8.67 ± 1.1
3,TTTATTTATGTTGAAACATGCAAAAAGTTATTTATA [TGCATGCA_site716],7.4 ± 0.49
4,ATATGAACATTTACATGTACATGTAAATGTAACACT [XGTACX_site4574],7.9 ± 0.49
5,GAAAATATGTAATAGTGTACACATATATATGTATAT [XGTACX_site306],8.01 ± 0.59
6,TGCTCATTCCTGTCATGTACATATTATATATATATA [XGTACX_site6890],9.16 ± 0.4
7,CACAAAAAGAAACACACACACATATATATATATATA [CACACA_site999],9.56 ± 0.64
8,ATTCTAAATAATAAGAGTACAAATAATATGGAGAAG [XGTACX_site5209],8.21 ± 0.43
9,TTCTAACTTTTAAACACACAAATATAAATAAGTATA [CACACA_site7473],7.67 ± 0.47
10,AAGAATAATAATAAATGTACACAATATTATATATAT [XGTACX_site5525],8.41 ± 0.46
11,AAATGAACAAGTGGCACACACACATTATAACTAATT [CACACA_site9048],8.25 ± 0.59
12,GAACGTATCATGTGTACACACAAATTGTTTTTTTTT [CACACA_site2020],7.93 ± 0.83
13,TGCAAGCTTATATAGGTGCACATGTATACGTGTTCA,9.7 ± 0.33
14,TATGTAGTCACAAGGTGTACACTTTAACAAATTATG [XGTACX_site8792],8.23 ± 0.52
15,TATATACACAAACACACACACACATACACCCACATA [CACACA_site8504],8.27 ± 0.071
16,TATTAAAATTAAAAAAAAAAAAAAAAGCAATAAAAA [XGTACX_negctrl_site426],7.54 ± 0.63
17,GTGCATATCTGATATACACACAATAAAATAGTATGT [CACACA_site7203],9.37 ± 0.4
18,AATTATATATTTGAGAGTACATATGTAATGTTTATA [XGTACX_site6970],7.75 ± 0.35
19,TATGATACATAAATATGTACGTATAATATATATTTA [XGTACX_site7002],7.8 ± 0.23
20,CATATATTATTTATACGTACTAATAAAATAAATCAA [XGTACX_site1030],7.92 ± 0.042
21,CCCGTAAATTATGAGTGTACGTTATTTTTTAAAATG [XGTACX_site3946],8.29 ± 0.84
22,ACATATACATATATATGTACATAAATATATATATAT [XGTACX_site8630],8.93 ± 0.39

row,Sequence,gcPBM binding intensity (ln)
1,ATATATATATATTGCACACACAATTATTATTATTAT [CACACA_site2299],10.3 ± 0.3
2,ATGCTTTTTAAATGATTGCACTAGATTGTAATATGT [GTGCAC_site9666],9.41 ± 0.11
3,TATATATATATTTTAACACACACATATATATATTTA [CACACA_site8892],9.05 ± 0.2
4,TGTATGAAATATATTACACACATATAAAATCTATAT [CACACA_site6514],7.65 ± 0.42
5,TTGATGTTGGTAGGATGTACGGTACCGGTAAAGTTT [XGTACX_site7705],8.06 ± 0.79
6,TTTTTAATTTTTTGTTGTACATATAATATATTATTA [XGTACX_site4903],7.95 ± 0.47
7,AAGCTTCATTAATATACACACATATATGCGTATATT [CACACA_site3695],7.67 ± 0.49
8,AAATTTGAAGAATATTGTACGCATAATAATTAAATA [XGTACX_site4300],7.95 ± 0.42
9,TATATAATTATAAGAACACACATATATATATATATA [CACACA_site2472],9.51 ± 0.51
10,AATAATACACAATTTTGTACGTATTTAAAATATATT [XGTACX_site45],7.83 ± 0.28
11,TAAAATATATAATAATGTACATATTTTTATTTAGGA [XGTACX_site4987],7.62 ± 0.22
12,TATTTATGAGAAATAGTGCAAAGATATGATCTTTAA,9.5 ± 0.21
13,AATTAAAAACATTTCACACATAAAAATGAAATATAT [CACACA_site5199],7.62 ± 0.63
14,AAAAATTACCTGACTTGTACATAATTTAAGAACAAT [XGTACX_site6233],7.58 ± 0.59
15,ATAATATATTTATAATGTACATAAGAACAAATTAAA [XGTACX_site1745],7.83 ± 0.38
16,GGTATATTAAAATAGGTGCATAAAACTAAGAGAAAA [GTGCAC_site9781],11.3 ± 0.54
17,ACGTTTGATACACATAAAGTTTTCCTTTGAATGTAC [CACACA_negctrl_site106],7.78 ± 0.61
18,ATAAAATAAAAGTGTACACAAGAAAATATGTTATGT [CACACA_site6033],8.54 ± 0.53
19,TGTGCTATATTCATATGTACATATAATTATTATATA [XGTACX_site3549],9.52 ± 0.57
20,AACATGAAAGATAGCAAAAAAAAAAAAAAAAAAAAA [TGCATGCA_negctrl_site607],8.1 ± 0.89
21,AAAAAATAATAAATCACACATATTATATATATATAT [CACACA_site5838],9.12 ± 0.4
22,CATATTAATATTATGGGTACATATAAATTTACATTC [XGTACX_site687],7.77 ± 0.35

row,Sequence,gcPBM binding intensity (ln)
1,TCTTTTTTTATTTTATTTTTTTTTTTTAAATAATTC [TGCATGCA_negctrl_site372],7.45 ± 0.67
2,ATTATAATATTGTTATGTACATAAAAATTATTGAAT [XGTACX_site4476],7.9 ± 0.57
3,AAAACATAAATACATACACACATAATATATATTAAT [CACACA_site109],7.62 ± 0.65
4,ACTTGACACGGACACACACACATATATAAAAAAAAA [CACACA_site4576],8.29 ± 0.25
5,TTTTTTTATTATCATGCACACATTTTTTTTTTTTAC [CACACA_site2253],8.88 ± 0.56
6,TCCTTTATTTTTAAATGTACAAATATTATCTCCTCA [XGTACX_site5856],7.79 ± 0.44
7,ATAATAAAAATAAGAGAATAAAAATGCAATTTAATG [CACACA_negctrl_site878],7.95 ± 0.47
8,TGATTCTTTTGTATCACACACACTTAGTTTAATTTT [CACACA_site2404],7.7 ± 0.8
9,ATTGATCGGATAAAATGTACAAATATATATATATAT [XGTACX_site7345],9.28 ± 0.32
10,ATTTATAATGTGTATACACACATATATAGATTTGCT [CACACA_site6440],7.54 ± 0.48
11,AACTCACATAAATTCACACAAATGTATATTCATATA [CACACA_site4554],7.62 ± 0.72
12,AAATTATAATATAATACACACATAAAAAAAAAATCA [CACACA_site3634],7.76 ± 0.45
13,TATATATATATATATTGTACACATATATATTTACGA [XGTACX_site4791],9.43 ± 0.69
14,ATATTTATATGAATCACACACAAAAAATATAGAGAT [CACACA_site7775],7.88 ± 0.57
15,ACTGTGGGAATAACCACACACACACCCACATATATA [CACACA_site3542],8.04 ± 0.58
16,TTATTATATAAATAAAAAAAAAAAAAAAAAAAAAAA [CACACA_negctrl_site1455],8.17 ± 0.99
17,TATATACGCATGCGCACACACAAGTGGGAAATTTGG [CACACA_site1785],8.19 ± 0.61
18,CATAAATACAAATATACACACATATATATATATATA [CACACA_site2633],9.37 ± 0.32
19,AATATGTTTTTTAGATGTACAGATTAAATATTAAAA [XGTACX_site7308],7.76 ± 0.29
20,AAATCACAAAAAAAAAAAAAAATATATATATATATA [CACACA_negctrl_site10],9.41 ± 0.29
21,AAATAGTAAGAGATGGTGCGTTTCCTTTTTTTTTTT [GTGCAC_site9663],9.56 ± 0.028
22,TTTAAAAATATTTCACGTACGCATTTTAAAAAGTAT [XGTACX_site8026],8.09 ± 0.28

row,Sequence,gcPBM binding intensity (ln)
1,TTTTTTTCATATATATGTACATAATTATATATGCAT [XGTACX_site3257],7.92 ± 0.47
2,TTAATTATATGGTAAACAAATAAATGTGAAAGGAAA [XGTACX_negctrl_site389],7.96 ± 0.43
3,CGTGGGAGCAGACACACACACACACCCATATATATA [CACACA_site334],8.24 ± 0.73
4,TATTTATAAATATACGCACACATTAATATATATATA [CACACA_site3969],8.93 ± 0.21
5,GTTGGTAGGCGGTACGGTACACGTAGTATTTTTCTT [XGTACX_site4213],7.62 ± 0.88
6,ATATTATTTATTTTTAAATTATATTGATTATTTTTT [CACACA_negctrl_site451],7.18 ± 0.32
7,AGTATGTAAATGTGCCATATATATATTAAATACATA [CACACA_negctrl_site14],8.53 ± 0.2
8,TAGAAATATATTTATTGTACATTGTATATATTATAT [XGTACX_site7584],7.62 ± 0.43
9,TTGAAGTGTACTATTTTATATATATATATACATTTT [CACACA_negctrl_site224],8.03 ± 0.26
10,TCTTTTTTTTTTACTAGTACTTAAAAAAAAAATATG [XGTACX_site4395],7.87 ± 0.33
11,ATTATGTGCCAATACACACACACATCTATATTTATA [CACACA_site6359],8.51 ± 0.5
12,TTTTAATTTTTAAGACGTACTATCATTTGATAATAA [XGTACX_site3942],7.47 ± 0.36
13,TACGATGTTTTAAAATGTACATAAAAGTCACATAAG [XGTACX_site3297],7.72 ± 0.38
14,TATGATAAATATGGAGCACACACACCGAAACATACA [CACACA_site8031],8.28 ± 0.33
15,AAGTGTTCTTGTTATACACACACATATATATATATA [CACACA_site8251],9.36 ± 0.48
16,TAGCATGATTTGCCTTGTACACAACCGTTTTAATAA [XGTACX_site7911],7.89 ± 0.6
17,TATATTATATATATATGTACATATTATTATATCTAA [XGTACX_site3835],7.75 ± 0.44
18,TTTTGTATTTTTCACACACACATAAGTAAACAATAA [CACACA_site1899],8.18 ± 0.54
19,TAAATGAAAATATGTACACACTTGAAAATTTTTATG [CACACA_site5599],7.84 ± 0.47
20,ATACAATAATATAAATGTACAAATTATATCTTCATT [XGTACX_site8994],7.58 ± 0.35
21,AAATTAAATATTATATTAATTCTTAAATTTTTTTTT [CACACA_negctrl_site439],7.01 ± 0.58
22,AAACATATGGTATTTAAACACACAAAAAAGAAAGAA [CACACA_site8239],8.11 ± 0.65
